According to PubChem BioAssay AID504637 (National Center for Advancing Translational Sciences (NCATS), 2011):
The whole screen tested about 1,100 compounds, of which about 430 (39%) were called active. So high a share suggests a set chosen from earlier hits. Inconclusive means that the source gave no clear call. Such entries were picked first, then a sample of the others. Calls follow the shape of the dose curve; as a rule, active = well fitted inhibition curve with a large enough effect; inconclusive = small, poorly fitted or top-dose-only effect, or effect the other way; inactive = flat fitted curve, though single readings scatter. Where the call is inconclusive, the potency comes from a doubtful curve fit.

biological target: ATP-dependent 6-phosphofructokinase (Trypanosoma brucei brucei) (UniProt O15648); experiment: Inhibitors of T. brucei phosphofructokinase: Hit Validation; also: nearly all actives have a fitted effect of over 60% in size; settings: purified T. brucei PFK, ADP-Glo luminescence, 45 min; series mostly up to 57.5 µM
UniProt O15648, sequence (O15648 whole entry, looked up): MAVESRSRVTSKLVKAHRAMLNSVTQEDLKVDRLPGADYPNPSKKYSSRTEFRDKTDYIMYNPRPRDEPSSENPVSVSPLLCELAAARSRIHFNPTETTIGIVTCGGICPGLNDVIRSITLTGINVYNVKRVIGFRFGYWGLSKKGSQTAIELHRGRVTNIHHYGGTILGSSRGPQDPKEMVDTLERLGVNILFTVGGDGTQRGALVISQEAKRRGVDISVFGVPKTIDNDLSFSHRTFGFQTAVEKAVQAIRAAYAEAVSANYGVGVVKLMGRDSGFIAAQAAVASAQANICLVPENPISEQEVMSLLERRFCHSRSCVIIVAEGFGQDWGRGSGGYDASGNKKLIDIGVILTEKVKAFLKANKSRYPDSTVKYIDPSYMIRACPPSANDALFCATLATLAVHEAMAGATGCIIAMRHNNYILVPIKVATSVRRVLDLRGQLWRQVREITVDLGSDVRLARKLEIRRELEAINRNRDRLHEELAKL
Potency is read from the fitted curve at half-maximal effect; tags tell the direction and shape of the fitted curve.

SMILES	Potency
Cc1cc(-c2nc3c4c5c(sc4[nH]c(=O)n3n2)CCC5)c(C)o1	inactive
O=C(NNS(=O)(=O)c1ccccc1F)c1cc(-c2ccccc2)n[nH]1	inconclusive: 15.1 µM [activator, partial curve]
Cc1cc(F)ccc1NCc1ccc([N+](=O)[O-])cc1	inconclusive: 21.3 µM [inhibitor, single point]
N#Cc1ccc(OCC(=O)Nc2ccc(S(=O)(=O)N3CCOCC3)cc2)cc1	active: 30.1 µM
COc1ccc2nc(NC(=O)c3ccccc3O)sc2c1	inconclusive: 9.53 µM [activator, partial curve]
O=C1N=c2ccccc2=C1c1sc(Nc2ccc(O)cc2)nc1O	inactive
COc1ccc(NC(=O)C(=O)NNC(=O)c2cccs2)cc1	inconclusive: 7.57 µM [activator, partial curve]
Cc1c(Br)c([N+](=O)[O-])nn1CC(=O)Nc1ccc(CC#N)cc1	inconclusive: 26.9 µM [inhibitor, partial curve]
O=C(N/N=C/c1ccc2c(c1)OCO2)C1COc2ccccc2O1 (centres undefined)	active: 21.3 µM
CCOC(=O)c1[nH]c(C)c(/C(O)=C2\C(=O)C(=O)N(CCCn3ccnc3)C2c2ccncc2)c1C (centres undefined)	active: 26.9 µM
O=C1N(c2ccc(Cl)c(Cl)c2)CN(Cc2ccccc2)CN1n1cnnc1	inactive
CC(=O)CSc1nnc(Cc2ccc([N+](=O)[O-])cc2)o1	inactive
Cc1c(Cl)sn(-c2ccc(Cl)cc2)c1=O	active: 5.36 µM
CCc1ccccc1NC(=O)CSc1ccsc1[N+](=O)[O-]	inconclusive: 26.9 µM [inhibitor, single point]
CCOC(=O)c1sc(=S)n(C)c1NC(=O)c1ccccc1	inconclusive: 33.8 µM [inhibitor, single point]
COc1cc(CC(=O)Nc2nc(-c3ccccc3)c(C(C)=O)s2)cc(OC)c1OC	inconclusive: 30.1 µM [inhibitor, single point]
CCOC(=O)c1c(-c2ccc(OC)cc2)csc1/N=C/C1C(=O)CCCC1=O	inactive
O=C(Nc1nc(-c2ccco2)c(-c2ccco2)s1)c1cnccn1	inactive
Cn1ccc(=Nc2ccc(NC(=O)c3ccc(N=c4ccn(C)c5ccc([N+](=O)[O-])cc45)cc3)cc2)cc1	inconclusive: 21.3 µM [activator, single point]
N#C/C(=C/c1ccc(O)c(O)c1)C(=O)NCc1ccc(Cl)cc1	inactive
NS(=O)(=O)c1ccc(NC(=O)COc2ccc(Cl)cc2)cc1	inconclusive: 0.757 µM [inhibitor, full curve, poor fit]
NS(=O)(=O)c1ccc(NC(=S)NCc2ccc(Cl)cc2)cc1	active: 5.36 µM
Cc1ccc(Cl)cc1NC(=O)C[n+]1ccc(Cc2ccc([N+](=O)[O-])cc2)cc1	inconclusive: 37.9 µM [inhibitor, single point]

SMILES	Potency
Cc1nnc(NCCc2ccccc2)[nH]c1=O	active: 26.9 µM
Oc1ccc(N=Nc2ccccc2-c2nn[nH]n2)c(O)c1	inconclusive: 15.1 µM [activator, partial curve]
CCOC(=O)c1c(-c2ccc(C)o2)csc1NC(=O)COC(=O)c1ccc(NC(N)=O)cc1	inactive
C[n+]1cccc2cccc([O-])c21	inconclusive: 26.9 µM [inhibitor, single point]
COC(=O)c1c(NC(=O)Cc2cccs2)sc2c1CCCC2	inconclusive: 37.9 µM [inhibitor, single point]
Cn1c(SCC(=O)O)nnc1-c1ccc(NC(=O)c2ccc(Cl)c(Cl)c2)cc1	inconclusive: 37.9 µM [inhibitor, single point]
C/C(=N\NC(=O)C(C)Nc1cccc(Cl)c1)c1ccc([N+](=O)[O-])cc1 (centres undefined)	inconclusive: 37.9 µM [inhibitor, single point]
Cc1ccc(NNC(=O)Nc2ccc(Cl)cc2)nn1	inconclusive: 30.1 µM [inhibitor, single point]
OC(CNCc1ccc(Cl)c(Cl)c1)c1ccccc1 (centres undefined)	inconclusive: 33.8 µM [inhibitor, single point]
COc1ccc2[nH]c3c(=O)n(CCCCC(=O)NCCN4CCCC4)c(=S)[nH]c3c2c1	inconclusive: 12 µM [inhibitor, partial curve]
O=C(NNc1nc2ccccc2s1)Nc1ccc(Cl)c(Cl)c1	inactive
O=S(=O)(O)c1cc(OS(=O)(=O)c2ccccc2)cc2ccccc12	inconclusive: 30.1 µM [inhibitor, single point]
COc1ccc(NC(=O)CN2C(=O)S/C(=C/c3cccn3-c3ccc(C(=O)O)cc3)C2=O)cc1	inconclusive: 30.1 µM [inhibitor, single point]
CC(NC(=O)c1ccco1)C(=O)N1CCN(c2cccc(C(F)(F)F)c2)CC1 (centres undefined)	inactive
COc1ccc(OC)c(NC(=O)c2cc(-c3cc(C)ccc3O)n[nH]2)c1	inconclusive: 30.1 µM [activator, single point]
COc1cc(/C=C(\C#N)c2nc3ccccc3s2)cc([N+](=O)[O-])c1O	inconclusive: 3.01 µM [activator, full curve]
Cc1ccc(S(=O)(=O)N(C(=O)c2ccncc2)c2ccc(OC(=O)c3ccncc3)c3ccccc23)cc1	active: 2.69 µM
COc1ccc(N=C2SC(C(N)=O)CC(=O)N2Cc2ccc3c(c2)OCO3)cc1 (centres undefined)	inconclusive: 6.01 µM [inhibitor, partial curve]
O=C(Nc1cccc(C(=O)N2CCN(c3cccc(Cl)c3)CC2)c1)c1ccccc1	inconclusive: 23.9 µM [inhibitor, single point]
O=c1c2cc(F)ccc2sn1-c1ccc(F)cc1	inconclusive: 37.9 µM [inhibitor, single point]
COc1ccc2c(CC(=O)OCC(=O)Nc3cccc(C)c3)coc2c1	inconclusive: 12 µM [inhibitor, partial curve]
O=C(Nc1cccs1)Nc1ccc(Br)cc1F	inconclusive: 37.9 µM [inhibitor, single point]
Cc1ccc(-c2cc(C(=O)N/N=C/C(Br)=C/c3ccccc3)n[nH]2)o1	inconclusive: 9.53 µM [activator, partial curve]

SMILES	Potency
NNC(=O)CNc1cccc(Br)c1	inconclusive: 30.1 µM [inhibitor, single point]
O=C(CN1C(=O)/C(=C2\SC(=S)N(CCS(=O)(=O)O)C2=O)c2ccccc21)Nc1cccc(Br)c1	active: 7.57 µM
CCn1c(C)nc2cc(C(=O)N/N=C/c3ccc(O)c(O)c3O)ccc21	inconclusive: 0.953 µM [inhibitor, full curve]
O=C(COC(=O)c1cc2c(s1)CCC2)Nc1ccc(F)cc1	inconclusive: 9.53 µM [inhibitor, partial curve, poor fit]
S=C(NCc1ccccc1)N1CCN(c2cccc(Cl)c2)CC1	active: 26.9 µM
CCOc1cc(/C=C\[N+](=O)[O-])ccc1OCC(=O)Nc1ccccc1C	inconclusive: 2.69 µM [activator, full curve]
CCOc1ccccc1NC(=O)COc1coc(CN2CCc3ccccc32)cc1=O	inactive
CCOC(=O)NCc1ccc(Cl)c(Cl)c1	inconclusive: 30.1 µM [inhibitor, single point]
O=C(CCNc1ccc(F)c(Cl)c1)c1ccco1	active: 21.3 µM
Cc1cccc(NC(=O)COc2ccc(/C=N\n3cnnc3)cc2)c1	inactive
CCN(C(=O)CN1CCN(c2ccc(O)cc2)CC1)c1c(N)n(Cc2ccccc2)c(=O)[nH]c1=O	inconclusive: 33.8 µM [inhibitor, single point]
O=C(N/N=C/c1sc2ccccc2c1O)c1cccc2ccccc12	inconclusive: 9.53 µM [activator, partial curve]
Cn1c(Oc2ccccc2NCc2cc(Br)ccc2O)cc(=O)n(C)c1=O	active: 13.5 µM
Clc1cccc2c3c([nH]c12)CCNC3	inconclusive: 33.8 µM [inhibitor, single point]
O=C(COc1ccccc1F)Nc1ccc(S(=O)(=O)Nc2nccs2)cc1	active: 6.01 µM
Cc1cc(OCC(=O)Nc2ccc(S(=O)(=O)N3CCN(C)CC3)cc2)ccc1Cl	inconclusive: 23.9 µM [inhibitor, partial curve]
COc1ccc(C(=O)OCC(=O)Nc2ccc3[nH]c(=O)[nH]c3c2)c(OC)c1OC	inconclusive: 9.53 µM [inhibitor, partial curve]
COc1cc2c(cc1OC)CN(C(=O)COc1ccccc1[N+](=O)[O-])CC2	inactive
COc1ccc(CNC(=O)N2CCN(c3cccc(Cl)c3)CC2)cc1OC	active: 23.9 µM
CNc1cccccc1=S	inconclusive: 3.79 µM [inhibitor, full curve]
CCOC(=O)C1CCCN(C(=O)Cn2sc3nc(C)cc(C)c3c2=O)C1 (centres undefined)	active: 3.79 µM
O=C(COc1ccc([N+](=O)[O-])cc1)Nc1ccc(S(=O)(=O)N2CCOCC2)cc1	active: 26.9 µM
N#Cc1ccc(OCC(=O)Nc2cccc(S(=O)(=O)NC3=NCCCCC3)c2)cc1	active: 6.01 µM

SMILES	Potency
COc1cccc(CNc2ccc(F)c(Cl)c2)c1	active: 16.9 µM
O=C1OC(Nc2ccc(F)c([N+](=O)[O-])c2)c2ccccc21 (centres undefined)	inconclusive: 23.9 µM [inhibitor, partial curve]
C=CCNC(=O)N1CCc2[nH]c3ccc(F)cc3c2C1	inconclusive: 37.9 µM [inhibitor, single point]
O=C(NC(=S)Nc1ccccc1C(=O)O)c1ccc2ccccc2c1	inconclusive: 12 µM [activator, partial curve]
O=C(Cc1ccc(Br)cc1)N/N=C/c1ccc(-c2cccc(C(=O)O)c2)o1	active: 12 µM
O=C(COc1ccc(/C=C\[N+](=O)[O-])cc1)N1CCOCC1	inconclusive: 5.36 µM [activator, full curve]
Cc1c(Br)c([N+](=O)[O-])nn1CC(=O)Nc1ccc(C(N)=O)cc1	active: 26.9 µM
O=C1OC(c2cccs2)=N/C1=C/c1ccc(-c2cccc(C(=O)O)c2)o1	inconclusive: 7.57 µM [inhibitor, full curve]
O=C(CSc1ccccn1)N1CCN(c2cccc(Cl)c2)CC1	inconclusive: 23.9 µM [inhibitor, single point]
COc1cccc(CC(=O)Nc2ccc(S(=O)(=O)Nc3nccs3)cc2)c1	inconclusive: 37.9 µM [inhibitor, single point]
COCCNC(=O)/C(C#N)=C/c1ccc(O)cc1	inconclusive: 26.9 µM [inhibitor, partial curve]
Cc1ccc(NC(=O)CN2C(=O)N/C(=C/c3cccn3-c3ccc(C(=O)O)cc3)C2=O)cc1	inconclusive: 1.9 µM [inhibitor, full curve]
O=C(COC(=O)CCOc1ccccc1)NCc1ccco1	inconclusive: 5.36 µM [inhibitor, partial curve]
Cc1ccnc(-n2sc3ccccc3c2=O)n1	inconclusive: 37.9 µM [inhibitor, single point]
O=c1cc(/N=C/c2coc3c(ccc4ccccc43)c2=O)[nH]c(=S)[nH]1	inconclusive: 10.7 µM [activator, partial curve]
CC(/C=C\c1cccnc1)=C/C(=O)O	active: 26.9 µM
O=C1c2c([N+](=O)[O-])cc([N+](=O)[O-])cc2S(=O)N1Cc1ccccc1 (centres undefined)	inactive
Cc1cc(C)n2c(=S)[nH]nc2n1	inconclusive: 21.3 µM [inhibitor, single point]
Cc1ccnc(NS(=O)(=O)c2ccc(NC(=O)Cc3ccc(Br)cc3)cc2)n1	inconclusive: 30.1 µM [inhibitor, partial curve]
C=CCN1C(=O)N/C(=C/c2ccc(C)o2)C1=O	inconclusive: 33.8 µM [inhibitor, single point]
